Laboratory results taken from paper PMC12040169 (PLOS Biology, 2025).
This is one part of the list.

Test system: T1, C. trachomatis L2/434/Bu expressing GFP (CTL2-GFP)
T1 construct: L2/434/Bu GFP intracellular growth in HeLa cells
Design: species or system HeLa; C. trachomatis total inclusion area by high-content imaging, normalised to DMSO
Conditions: total inclusion area; 28.5 h, 10 µM; inhibitor
In short: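 High-content imaging followed the bulk GFP/resorufin measurement: fixed, Hoechst-stained cells were scored for GFP inclusions and host nuclei per well. Total inclusion area and count served as growth proxies, nuclei number as the viability proxy. MIC calculation matched the bulk assay.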

Row | SMILES | % of control remaining
1 | CCN(Cc1ccncc1)C(=O)NCc1cc(C)on1 [CBK155122] | 93.4273
2 | CC(C)[C@H](CO)Nc1nccnc1-c1cccs1 [CBK089047] | 127.285
3 | Cc1ccc2c(c1)nc(CNC(=O)NCCCO)n2C [CBK306174] | 73.5653
4 | CN(C)CCNc1nc(-c2ccncc2)cnc1N [CBK063580] | 89.4124
5 | Cc1cc(C)n(CC2CCCCN2C(=O)COc2cccnc2)n1 (stereo not shown) [CBK304040] | 82.2329
6 | O=C(Cn1cc(C(=O)COc2ccccc2)c2ccccc21)Nc1ccccc1 [CBK267653] | 95.3921
7 | O=C(C1=C(O)C(=O)N(c2ncccn2)C1c1cccc([N+](=O)[O-])c1)c1ccc(F)cc1 (stereo not shown) [CBK264932] | 107.215
8 | CC(Nc1oc(-c2ccco2)nc1S(=O)(=O)c1ccc(F)cc1)c1ccccc1 (stereo not shown) [CBK267671] | 110.816
9 | OCCOc1ccccc1N1CCOCC1 [CBK001767C] | 85.7772
10 | O=C(Nc1cc(-c2nc3ncccc3o2)ccc1Cl)c1cccnc1 [CBK269700] | 89.1811
11 | CCOCC1CCN(C(=O)c2ncsc2Nc2cccnc2)C1 (stereo not shown) [CBK304514] | 101.967
12 | COc1c(C)cnc(COC(=O)N2CCOCC2)c1C [CBK200145] | 119.785
13 | CC(C)CC(CC(C)C)OCC(=O)NCC1(c2ccc3ccccc3c2)CCC1 [CBK067404] | 60.9792
14 | O=C(NC1CCCc2nc(N3CCC(CO)CC3)ncc21)C1CCCC1 (stereo not shown) [CBK307415] | 71.4707
15 | Cc1c(C(=O)N2CCN(C3CCCCC3)C(=O)C2)[nH]c2ccccc12 [CBK282539] | 101.239
16 | COC1CCC(C(=O)Nc2cnc(-c3cccc(OC(F)(F)F)c3)c(-c3cccnc3)n2)CC1 (stereo not shown) [CBK036754] | 127.037
17 | Cc1ccccc1CN1CCCN(C(=O)CCNC(=O)c2ccco2)CC1 [CBK297718] | 104.262
18 | c1csc(-c2cncc(NCCCN3CCOCC3)n2)c1 [CBK065623] | 107.941
19 | N#CCCN(C(=O)Nc1ccc2c(c1)OCCO2)C1CCCCC1 [CBK156364] | 102.087
20 | C[C@H]1[C@@H]2[C@@H](O)C([C@H](C)C(=O)N3CCCC3)CC[C@@]2(C)CC[C@@H]1NC(=O)c1ccncc1 (stereo partly shown) [CBK289450] | 101.922
21 | CCc1nc2ccc(C(=O)NCCOc3ccc(OC)cc3)cn2c1N(C)CC [CBK145504] | 91.1592
22 | O=c1oc(-c2cccc(F)c2)nc2ccc(Cc3ccc4nc(-c5cccc(F)c5)oc(=O)c4c3)cc12 [CBK262856] | 86.5178
23 | O=C(O)COc1ccc(S(=O)(=O)N2CCCCC2)cc1Cl [CBK268419] | 113.373
24 | CCc1cccc2c(CC(=O)NC3CCCOC3)c(C)[nH]c12 (stereo not shown) [CBK282584] | 117.025
25 | Cn1cnnc1C1CCCN(C(=O)NCc2cccc(F)c2)C1 (stereo not shown) [CBK305792] | 52.8821
26 | CCOc1ccccc1-c1ccccc1NC(=O)c1cc(=O)n(C)c2ccccc12 [CBK285843] | 91.7195

Row | SMILES | % of control remaining
27 | O=C(Cn1nnc2ccccc2c1=O)NCC(F)(F)F [CBK304533] | 38.3234
28 | O=C(CCn1c(C(F)F)cc2cccnc21)NCc1ccc(F)cc1 [CBK285067] | 84.6539
29 | COc1ccc(/C=N/NC(=O)CCc2c(C)n[nH]c2C)cc1O [CBK262894] | 97.3159
30 | COc1ccc(-c2cccc(Nc3cccnc3)n2)cc1OC [CBK037644] | 113.714
31 | Cc1c(C)n(C)c2nc(N3CCCC3)nc(N3CCCC3)c12 [CBK016683C] | 97.2354
32 | COc1ccc(Cn2nc(NC(=O)OC(C)C)c3ccccc32)cc1 [CBK048404] | 108.478
33 | Cc1ccc(CSCC(=O)N2CCC(Cc3ccccc3)CC2)cc1 [CBK058739] | 64.5159
34 | CCC(C)N1CCN(S(=O)(=O)c2ccccc2[N+](=O)[O-])CC1 (stereo not shown) [CBK264270G] | 115.069
35 | Cc1cc2c3c(c1)c1c(n3CCC2)CCNCC1 [CBK018380C] | 69.6598
36 | CC(=O)C1=C(c2ccccc2)NC(=S)NC1c1cc(Cl)ccc1OCC(=O)O (stereo not shown) [CBK267300] | 105.442
37 | Cc1nc(CC(=O)OC(C)C(=O)N2CCCc3ccccc32)cs1 (stereo not shown) [CBK305285] | 61.7802
38 | Cc1ccc(-c2cncc(N3CCN(CCO)CC3)n2)cc1C [CBK065912] | 101.283
39 | CC1=Nc2ccc(Cl)cc2C(C)(C)O1 [CBK022763C] | 81.6762
40 | c1cc(-c2nccnc2OCCn2ccnc2)ccn1 [CBK106737] | 90.6683
41 | O=C(c1ccccc1F)N1CCC(c2cc3ncccc3[nH]2)CC1 [CBK283391] | 99.5982
42 | O=C(CCN1C(=O)C2C3CCC(C3)C2C1=O)OCC(=O)c1ccc(-c2ccccc2)cc1 (stereo not shown) [CBK265113] | 126.803
43 | Cc1ccnc(NCC2CCN(c3cc(=O)n4oc(C)cc4n3)C2)c1 (stereo not shown) [CBK305191] | 36.3535
44 | c1ccc(CNc2nccn3ccnc23)nc1 [CBK037526] | 105.494
45 | CN(C)CCN1CCN(c2nccnc2-c2cccc(CO)c2)CC1 [CBK037047] | 125.664
46 | Cc1ccccc1-n1ccn(C(=O)CCC2CCCC2)c1=O [CBK106571] | 68.6864
47 | Cn1cncc1C(=O)N1CCN(Cc2ccccc2)CC1 [CBK200178] | 103.719
48 | COc1cncc(-c2cnc(N)c(NC3CCOCC3)n2)c1 [CBK063846] | 95.5749
49 | Cc1ccc(S(=O)(=O)N(CC(=O)Nc2cccnc2)c2ccc(C)c(C)c2)cc1 [CBK263974] | 99.1238
50 | CCc1nc2ccc(C(=O)NCCN3CCNC3=O)cn2c1N(CCN(C)C)CC1CC1 [CBK145469] | 77.0559
51 | CCNc1nc(NCc2ccccc2)nc(Oc2ccc(O)nn2)n1 [CBK266591] | 124.33
52 | Cc1cc(C)c(NC(=O)CSc2nnc(-c3cccnc3)s2)c([N+](=O)[O-])c1 [CBK268929] | 108.697
